From the supplement of paper PMC8183993 come the findings set out here.

Where “and” joins values, the source holds several entries; their conditions need not be identical. Equal values may be shown once. Where a name gives a salt, the structure may show the parent alone. ± gives the standard deviation of the averaged measurements. Whole data set: some 3,100 compounds, median “mean cytoplasmic OPP incorporation (global translation) relative to DMSO” near 100, cut for the lowest 2% near 56. Some of the results follow. Square brackets hold non-standard residues; d marks the D form. Peptide text beside a SMILES is read from it.

This test has as its system U2OS. Briefly: mean cytoplasmic OPP incorporation (global translation) relative to DMSO (% of DMSO); higher = more protein synthesis. The following applies: 10 µM; 24 h. As to the method: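 Primary image-based screen in U2OS cells: compounds at 10 uM for 24 h, then a 1 h o-propargyl-puromycin (OPP) pulse, click labelling, and high-throughput microscopy. Mean cytoplasmic OPP intensity and nuclei count were normalised to DMSO wells within each plate (DMSO = 100) and averaged over triplicate plates.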
Consider `CC1=C(/C=C/C(C)=C/C=C/C(C)=C/CO)C(C)(C)CCC1` [all-trans-Retinol], for which the “mean cytoplasmic OPP incorporation” value is 101.
In the case of `OCCn1cc(-c2cnc3nnn(Cc4ccc5ncccc5c4)c3n2)cn1`, the “mean cytoplasmic OPP incorporation” value was 98.9.
For the molecule `Cc1ncc([N+](=O)[O-])n1CC(C)O` (stereo not given) [Secnidazole], the “mean cytoplasmic OPP incorporation” value was determined as 100.
The result for `C/C=C(/C(=C/C)c1ccc(O)cc1)c1ccc(O)cc1` [Dienestrol] reads 105; that for `O=C(O)c1ccccc1OP(=O)(O)O` [Fosfosal], 97.4.
For `CC(C)C[C@H](NC(=O)N1CCCCCC1)C(=O)N[C@H](Cc1cn(C)c2ccccc12)C(=O)N[C@H](Cc1ccccn1)C(=O)O` the value was 99.8; for `CCCCn1c(=O)c2[nH]c(C34CC5CC(CC3C5)C4)nc2n(CCCO)c1=O`, 117.
The result for `CC1=C(/C=C/C(C)=C/C=C/C(C)=C\CO)C(C)(C)CCC1` [13-cis-Retinol] reads 90.9; that for `CCC(NC(C)C)C(O)c1ccc(O)c2[nH]c(=O)ccc12` (stereo not given) [Procaterol hydrochloride], 98.7; that for `O=C(NC[C@H](O)CO)c1ccncc1Nc1ccc(I)cc1F`, 87.8.
Consider `O=C(O)c1ccc2cc(-c3ccc(O)c(C45CC6CC(CC(C6)C4)C5)c3)ccc2c1`, for which the “mean cytoplasmic OPP incorporation” value came out at 65.6.
The result for `Cc1ccc(C(=O)Nc2ccc(CN3CCN(C)CC3)c(C(F)(F)F)c2)cc1C#Cc1cnc2[nH]ncc2c1` [GZD824 Dimesylate] reads 37.4.
On to `Oc1ccc(-c2nc(-c3ccc(F)cc3)c(-c3ccncc3)[nH]2)cc1`, for which the “mean cytoplasmic OPP incorporation” value was 102 and 97.8.
As for `O=C(Nc1ccc(S(=O)(=O)Nc2ccccc2Cl)c(Cl)c1)c1ccccn1`, the “mean cytoplasmic OPP incorporation” value was determined as 90.1.
For `O=C(O)c1cc(=O)[nH]c(=O)[nH]1` [Orotic acid (6-Carboxyuracil)] the value was 121; for `O=c1n(CCCN2CCN(c3cccc(Cl)c3)CC2)nc2ccccn12` [Trazodone hydrochloride], 91.2.
On to `CC1(C)S[C@@H]2[C@H](NC(=O)[C@H](N)c3ccccc3)C(=O)N2[C@H]1C(=O)O` [Ampicillin sodium], for which the “mean cytoplasmic OPP incorporation” value worked out at 102.
For `CC1(C)S[C@@H]2[C@H](NC(=O)[C@H](N)c3ccccc3)C(=O)N2[C@H]1C(=O)O` [Ampicillin trihydrate] the value was 100; for `CCOc1cc(C(=O)Nc2ccc(Cl)c(-c3nc4ccccc4[nH]3)c2)cc(OCC)c1OCC`, 116; for `CN(C)C(=O)n1nnnc1Cc1ccc(-c2ccccc2)cc1`, 106.
For `C=C[C@H]1CN2CC[C@H]1C[C@H]2[C@H](O)c1ccnc2ccc(OC)cc12` [Quinine HCl 2H2O] the value was 100.
The result for `N[C@@H](Cn1ccc(=O)n(Cc2ccccc2C(=O)O)c1=O)C(=O)O` reads 97 and 95.8; that for `O=C1[C@@H]2[C@H]3CC[C@H](C3)[C@@H]2C(=O)N1C[C@@H]1CCCC[C@H]1CN1CCN(c2nsc3ccccc23)CC1` [Lurasidone HCl], 106.
Turning to `CCCCC[C@H](O)/C=C/[C@H]1[C@H](O)CC(=O)[C@@H]1C/C=C\CCCC(=O)O` [Prostaglandin E2], the “mean cytoplasmic OPP incorporation” value was 99.3.
For the molecule `N/C(=N\C(=O)c1nc(Cl)c(N)nc1N)NCc1ccccc1` [Benzamil], the “mean cytoplasmic OPP incorporation” value stood at 100.
Consider `N/C(=N\C(=O)c1nc(Cl)c(N)nc1N)NCc1ccccc1` [Benzamil hydrochloride], for which the “mean cytoplasmic OPP incorporation” value was determined as 96.9.
The result for `O=C(CCNNC(=O)c1ccncc1)NCc1ccccc1` [Nialamide] reads 99.3; that for `CCCn1c(=O)c2[nH]c(C3CCCC3)nc2n(CCC)c1=O`, 103; that for `Nc1ccc(-c2ccc3ncc4ccc(=O)n(-c5cccc(C(F)(F)F)c5)c4c3c2)cn1` [Torin 2], 67.6 ± 3.6.
The result for `Cc1nc2ccccn2c(=O)c1CCN1CCC(C(=O)c2ccc(F)cc2)CC1` [Pirenperone] reads 108; that for `NC(=O)c1cnccn1` [Pyrazinamide], 100.
For `CO[C@@H]1[C@H](OC(=O)/C=C/C=C/C=C/C=C/C(=O)O)CC[C@]2(CO2)[C@H]1[C@@]1(C)O[C@@H]1CC=C(C)C` [Fumagillin] the value was 85.9; for `Nc1nc(N)c(N=O)c(OCC2CCCCC2)n1`, 90.1 ± 0.98.
As to `C#Cc1cccc(Nc2ncnc3cc(OCCOC)c(OCCO)cc23)c1` [OSI-420 (Desmethyl Erlotinib)], the “mean cytoplasmic OPP incorporation” value turned out to be 85.4.
The result for `Cn1cnc2c(F)c(Nc3ccc(Br)cc3F)c(C(=O)NOCCO)cc21` reads 92.3.
Regarding `CC(=O)O[C@H]1C(=O)[C@@]2(C)[C@H]([C@H](OC(=O)c3ccccc3)[C@]3(O)C[C@H](OC(=O)[C@H](O)[C@@H](NC(=O)c4ccccc4)c4ccccc4)C(C)=C1C3(C)C)[C@]1(OC(C)=O)CO[C@@H]1C[C@@H]2O` [Paclitaxel (Taxol)], the “mean cytoplasmic OPP incorporation” value was found to be 88.5.
The result for `CC(=O)O[C@H]1C(=O)[C@@]2(C)[C@H]([C@H](OC(=O)c3ccccc3)[C@]3(O)C[C@H](OC(=O)[C@H](O)[C@@H](NC(=O)c4ccccc4)c4ccccc4)C(C)=C1C3(C)C)[C@]1(OC(C)=O)CO[C@@H]1C[C@@H]2O` [Taxol] reads 93.9.
As to `CC(=O)O[C@H]1C(=O)[C@@]2(C)[C@H]([C@H](OC(=O)c3ccccc3)[C@]3(O)C[C@H](OC(=O)[C@H](O)[C@@H](NC(=O)c4ccccc4)c4ccccc4)C(C)=C1C3(C)C)[C@]1(OC(C)=O)CO[C@@H]1C[C@@H]2O` [Paclitaxel], the “mean cytoplasmic OPP incorporation” value turned out to be 101.
For `NC(=O)c1cccc(-c2cccc(OC(=O)NC3CCCCC3)c2)c1` the value was 107.
The result for `NCCCCCc1c[nH]cn1` [Impentamine dihydrobromide] reads 99.3; that for `COc1cccc2c1C(=O)c1c(O)c3c(c(O)c1C2=O)C[C@@](O)(C(=O)CO)C[C@@H]3O[C@H]1C[C@H](N)[C@@H](O)[C@H](C)O1` [Epirubicin HCl], 59.5.
For `CCCN(CCC)CCc1cccc2c1CC(=O)N2` [Ropinirole HCl] the value was 101; for `O=C1Cc2c([nH]c3ccc(Br)cc23)-c2ccccc2N1` [Kenpaullone], 86.8 ± 4.6; for `COc1ccc(CCN2CCN(CCCc3ccccc3)CC2)cc1OC`, 111.
With `CC[C@H]1OC(=O)C[C@@H](O)[C@H](C)[C@@H](O[C@@H]2O[C@H](C)[C@@H](O)[C@H](N(C)C)[C@H]2O)[C@@H](CCN2C[C@H](C)C[C@H](C)C2)C[C@@H](C)C(=O)/C=C/C(C)=C/[C@@H]1CO[C@@H]1O[C@H](C)[C@@H](O)[C@@H](OC)[C@H]1OC` [Tilmicosin], the “mean cytoplasmic OPP incorporation” value was 105.
As for `CNCCCC12CCC(c3ccccc31)c1ccccc12` [Maprotiline hydrochloride], the “mean cytoplasmic OPP incorporation” value is 105 ± 2.3.
The result for `CCc1c(O)cc(O)c(C(=O)c2ccc(OCCN3CCOCC3)c(OC)c2)c1CC(=O)N(CCOC)CCOC` reads 91.6; that for `NCC1CCN(c2nccc(-c3ccc4ccccc4c3)n2)CC1`, 88.3.
Consider `Cc1coc2c1C(=O)C(=O)c1c-2ccc2c1CCCC2(C)C` [Tanshinone IIA], for which the “mean cytoplasmic OPP incorporation” value amounted to 118.
On to `Cc1cn2cc(C(=O)N(C)CCO)cc(N[C@@H]3CCOc4cccc(C)c43)c2n1`, for which the “mean cytoplasmic OPP incorporation” value was 117.
As for `CC(C)(C)n1nc(-c2cccc3ccccc23)c2c(N)ncnc21` [1-Naphthyl PP1], the “mean cytoplasmic OPP incorporation” value stood at 93.
The result for `COc1ccc2c(c1)c(CC(=O)N1CCOCC1)c(C)n2C(=O)c1ccc(Cl)cc1` reads 112; that for `OC(c1cc(C(F)(F)F)nc2c(C(F)(F)F)cccc12)C1CCCCN1` (stereo not given) [Mefloquine hydrochloride], 108; that for `CC(=O)OCOC(c1cc([N+](=O)[O-])ccc1Oc1ccc(Br)cc1)P(=O)(OCOC(C)=O)OCOC(C)=O` (stereo not given), 101.
For `CN(C)Cc1cccc(N=C(c2ccccc2)c2c(O)[nH]c3cc(C(=O)N(C)C)ccc23)c1` the value was 92.8; for `C[C@@H]1C[C@H]2[C@@H]3C[C@H](F)C4=CC(=O)C=C[C@]4(C)[C@@]3(Cl)[C@@H](O)C[C@]2(C)[C@H]1C(=O)COC(=O)C(C)(C)C` [Clocortolone pivalate], 96.5.
Take `CC1(C)C[C@@H]1C(=O)N/C(=C\CCCCSC[C@H](N)C(=O)O)C(=O)O` [Cilastatin sodium]: the “mean cytoplasmic OPP incorporation” value came to 96.2.
For `CC1(C)C[C@@H]1C(=O)N/C(=C\CCCCSC[C@H](N)C(=O)O)C(=O)O` [Cilastatin] the value was 103; for `Cc1c(C)c2c(c(C)c1OC(=O)CCC(=O)O)CC[C@@](C)(CCC[C@H](C)CCC[C@H](C)CCCC(C)C)O2` [Tocopherol succinate], 96.4; for `Oc1cc2c(cc1O)CN(C(=S)NCCc1ccc(Cl)cc1)CCC2` [Capsazepine], 94.9.
For `CCCCCCC(=O)OC1CC(C)(C)NC(C)(C)C1` [TMPH hydrochloride] the value was 101; for `CCN(CCN(C)C)C(=O)CNCc1cc(C(N)=O)ccn1`, 96.2; for `CC(=O)O[C@H]1C[C@@H]2CC[C@@H]3[C@H](CC[C@@]4(C)[C@H]3C[C@H]([N+]3(C)CCCCC3)[C@@H]4OC(C)=O)[C@@]2(C)C[C@@H]1N1CCCCC1` [Vecuronium bromide], 102.
For `CC(=O)O[C@H]1C[C@@H]2CC[C@@H]3[C@H](CC[C@@]4(C)[C@H]3C[C@H]([N+]3(C)CCCCC3)[C@@H]4OC(C)=O)[C@@]2(C)C[C@@H]1N1CCCCC1` [Vecuronium Bromide] the value was 100; for `CCCCCCCC/C=C\CCCCCCCC(=O)NCCO` [Oleylethanolamide], 105; for `CCCCCCCC/C=C\CCCCCCCC(=O)NCCO` [N-Oleoylethanolamide], 99.6.
`C[C@@H](O)[C@H]1C(=O)N2C(C(=O)O)=C(S[C@@H]3CN[C@H](C(=O)N(C)C)C3)[C@H](C)[C@H]12` [Meropenem]: the “mean cytoplasmic OPP incorporation” value is 106 ± 6.2.
As for `CC(=O)NCC(=O)N[C@H](CCC(=O)O)C(=O)O` [N-Acetylglycyl-D-glutamic acid] (Ac-Gly-[dE]-OH), the “mean cytoplasmic OPP incorporation” value stood at 102.
For `C[C@@H]1O[C@@H](OC[C@H]2O[C@@H](Oc3c(-c4ccc(OCCO)c(OCCO)c4)oc4cc(OCCO)cc(O)c4c3=O)[C@H](O)[C@@H](O)[C@@H]2O)[C@H](O)[C@H](O)[C@H]1O` [Troxerutin] the value was 103.
The result for `CCN(CC)C(=O)/C(C#N)=C/c1cc(O)c(O)c([N+](=O)[O-])c1` [Entacapone] reads 103.
